Reference: article PMC11995724, “Antibiotic target discovery by integrated phenotypic and activity-based profiling of electrophilic fragments” (Cell chemical biology, 2025)
About 75 (2%) of roughly 3,200 compounds showed an effect of 50% or more. This is one part of the list.

tested on: T1, S. aureus MSSA476; set-up: species or system S. aureus MSSA476 (TSB) or V. cholerae SAD30 (LB); 384-well bacterial growth screen at 25 uM, OD600 relative to DMSO control; details: relative growth, OD600, TSB; 25 µM; inhibitor
T1 construct: MSSA476

SMILES	% of control remaining
CC(Cl)C(=O)N1CCN(c2ccccc2)CC1.Cl (centres unmarked) [4-E14, 2-chloro-1-(4-phenylpiperazin-1-yl)propan-1-one hydrochloride]	118.914%
C=CC(=O)N1CCC(C)C1 (centres unmarked) [2-H17, 1-(3-methylpyrrolidin-1-yl)prop-2-en-1-one]	110.009%
COc1ccc2[nH]c3c(c2c1)CCCC3NC(=O)CCl (centres unmarked) [5-G07, 2-chloro-N-(6-methoxy-2,3,4,9-tetrahydro-1H-carbazol-1-yl)acetamide]	100.911%
Cc1c(C=C(C#N)C(=O)Nc2cnc3ccccc3c2)cc(C#N)n1C [9-N15, 2-cyano-3-(5-cyano-1,2-dimethyl-1H-pyrrol-3-yl)-N-(quinolin-3-yl)prop-2-enamide]	116.554%
CCc1ccc(Cc2cnc(NC(=O)CCl)s2)cc1 [4-F19, 2-chloro-N-{5-[(4-ethylphenyl)methyl]-1,3-thiazol-2-yl}acetamide]	143.687%
C=CC(=O)NCc1ccc(-n2ccnc2)cc1 [1-M18, N-{[4-(1H-imidazol-1-yl)phenyl]methyl}prop-2-enamide]	130.11%
CC(Cl)C(=O)c1ccc2c(c1)CCC2 (centres unmarked) [10-M08, 2-chloro-1-(2,3-dihydro-1H-inden-5-yl)propan-1-one]	111.875%
C=CC(=O)Nc1c(C)cnn1CC1CC1 [1-M19, N-[1-(cyclopropylmethyl)-4-methyl-1H-pyrazol-5-yl]prop-2-enamide]	105.846%
CCCn1c(C)cc(C=C(C#N)C(=O)Nc2cccc(C#N)c2)c1C [8-N19, 2-cyano-N-(3-cyanophenyl)-3-(2,5-dimethyl-1-propyl-1H-pyrrol-3-yl)prop-2-enamide]	137.759%
C[C@H]1CN(C(=O)CCl)Cc2cccn21 [5-B03, 2-chloro-1-[(4S)-4-methyl-1H,2H,3H,4H-pyrrolo[1,2-a]pyrazin-2-yl]ethan-1-one]	90.3461%
CCc1ccc(C=C(C#N)C(=O)Nc2cc(C)c(Cl)cc2OC)cc1 [8-G11, N-(4-chloro-2-methoxy-5-methylphenyl)-2-cyano-3-(4-ethylphenyl)prop-2-enamide]	118.174%
Cc1cccc(N(Cc2c(C3CC3)cnn2C)C(=O)CCl)c1 [5-D07, 2-chloro-N-[(4-cyclopropyl-1-methyl-1H-pyrazol-5-yl)methyl]-N-(3-methylphenyl)acetamide]	88.5246%
CN(C)C(=O)c1cc2n(n1)CC1(CCN(C(=O)CCl)CC1)OC2 [5-K11, 1-(2-chloroacetyl)-N,N-dimethyl-4',7'-dihydrospiro[piperidine-4,6'-pyrazolo[3,2-c][1,4]oxazine]-2'-carboxamide]	104.554%
CC(Cl)C(=O)N1CC(=O)Nc2cc(C(F)(F)F)ccc21 (centres unmarked) [4-N20, 4-(2-chloropropanoyl)-7-(trifluoromethyl)-1,2,3,4-tetrahydroquinoxalin-2-one]	118.533%
C=CC(=O)Nc1ccc(C(=O)NC2CCN(C(C)C)C2=O)cc1 (centres unmarked) [3-C10, N-[2-oxo-1-(propan-2-yl)pyrrolidin-3-yl]-4-(prop-2-enamido)benzamide]	117.719%
C=CC(=O)NC1CCOCC1 [2-G17, N-(oxan-4-yl)prop-2-enamide]	112.794%
C=CC(=O)N1CCCC(C2CCN(C(=O)c3cc(C)nn3C)CC2)C1 (centres unmarked) [1-P22, 1-[1'-(1,3-dimethyl-1H-pyrazole-5-carbonyl)-[3,4'-bipiperidin]-1-yl]prop-2-en-1-one]	95.6484%
CC(Cl)C(=O)Nc1cc(F)ccc1F (centres unmarked) [6-A09, 2-chloro-N-(2,5-difluorophenyl)propanamide]	81.6098%
COC1CCC(N(Cc2cc(C)oc2C)C(=O)CCl)CC1 (centres unmarked) [5-O20, 2-chloro-N-[(2,5-dimethylfuran-3-yl)methyl]-N-(4-methoxycyclohexyl)acetamide]	91.0747%
CCc1ccc(NC(=O)C(C#N)=Cc2cccnc2)cc1 [8-G04, 2-cyano-N-(4-ethylphenyl)-3-(pyridin-3-yl)prop-2-enamide]	118.838%
C=CC(=O)N(C)CC(=O)N1CCCC1c1nc(C)no1 (centres unmarked) [2-M04, N-methyl-N-{2-[2-(3-methyl-1,2,4-oxadiazol-5-yl)pyrrolidin-1-yl]-2-oxoethyl}prop-2-enamide]	103.394%
C=CC(=O)N(C)Cc1ccncc1 [1-N21, N-methyl-N-[(pyridin-4-yl)methyl]prop-2-enamide]	139.253%
Cc1noc(C2CN(C(=O)C(C)Cl)C2)n1 (centres unmarked) [7-G04, 2-chloro-1-[3-(3-methyl-1,2,4-oxadiazol-5-yl)azetidin-1-yl]propan-1-one]	74.0973%
O=C(CCl)Cc1c(F)cccc1Cl [10-D20, 1-chloro-3-(2-chloro-6-fluorophenyl)propan-2-one]	108.438%
Cc1ccccc1NC(=O)C(C#N)=Cc1cccc2ccccc12 [8-H09, 2-cyano-N-(2-methylphenyl)-3-(naphthalen-1-yl)prop-2-enamide]	106.556%
O=C(CCl)N(Cc1ccc(F)cc1)C1CCCCC1 [4-I13, 2-chloro-N-cyclohexyl-N-[(4-fluorophenyl)methyl]acetamide]	87.6608%
C=CC(=O)NCC(OC)C1CCOC1 (centres unmarked) [3-L19, N-[2-methoxy-2-(oxolan-3-yl)ethyl]prop-2-enamide]	86.0253%
CC(=O)NCc1ccc(C(=O)CCl)o1 [10-I10, N-{[5-(2-chloroacetyl)furan-2-yl]methyl}acetamide]	129.375%
O=C(CCl)Nc1ccc(Cl)cc1[N+](=O)[O-] [5-N08, 2-chloro-N-(4-chloro-2-nitrophenyl)acetamide]	141.712%
